# Assay results published in the supplement of paper PMC4604168 (melanoma cell lines).
# The list shows a part of the results. Single values are uncertain, as repeats are few or missing.
# Key:
# Assay in all cases: cell count relative to DMSO control; melanoma cells; higher = more viable cells
# Settings in all cases: library dose: standard library concentration; 72 h
# G361 = system: G361
# IPC-298 = system: IPC-298
# IST-MEL1 = system: IST-MEL1
# LB2518-MEL = system: LB2518-MEL
# LOXIMVI = system: LOXIMVI
# MEL-HO = system: MEL-HO
# MZ2-MEL = system: MZ2-MEL
# MeWo = system: MeWo
# RPMI7951 = system: RPMI7951
# RVH-421 = system: RVH-421
# 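Note: cells treated in 1,536-well plates, then fixed and DAPI-stained, with nuclei counted from automated high-throughput microscope images.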
SMILES,cell count (G361),cell count (IPC-298),cell count (IST-MEL1),cell count (LB2518-MEL),cell count (LOXIMVI),cell count (MEL-HO),cell count (MZ2-MEL),cell count (MeWo),cell count (RPMI7951),cell count (RVH-421)
"O=c1[nH]nc(Sc2ncc([N+](=O)[O-])s2)n1-c1ccc2c(c1)OCCO2 + Oc1nc(-c2ccc(C(F)(F)F)cc2)nc2c1CSCC2 [XAV939] (first compound 1 µM, partner dose 10 µM)",88.6%,89.7%,99.4%,78%,90.6%,84.6%,85.3%,80%,70%,113%
"COc1cc(Nc2ncc(F)c(Nc3ccc4c(n3)NC(=O)C(C)(C)O4)n2)cc(OC)c1OC [Tamatinib] + O=C1NC(=O)/C(=C/c2ccc(-c3ccc(F)cc3O)o2)S1 [AS252424] (first compound 2 µM, partner dose 5 µM)",57.3%,75.9%,88%,70%,34.4%,59.1%,73.8%,61.7%,33.1%,86.7%
"O=C(O)c1ccc(-c2c[nH]c3ncc(-c4ccccc4)cc23)cc1C1CCCC1 + COC(=O)c1sccc1S(=O)(=O)Nc1ccc(Nc2ccccc2)cc1OC [GSK0660] (first compound 0.8 µM, partner dose 5 µM)",65.4%,78%,76.9%,114%,108%,73.6%,73.1%,95.3%,91.5%,67.1%
"Cn1cncc1[C@@](N)(c1ccc(Cl)cc1)c1ccc2c(c1)c(-c1cccc(Cl)c1)cc(=O)n2C [tipifarnib] + CCN(CC)CCCCNc1ncc2cc(-c3cc(OC)cc(OC)c3)c(NC(=O)NC(C)(C)C)nc2n1 [PD173074] (first compound 0.05 µM, partner dose 0.5 µM)",80.8%,102%,91.8%,88.1%,86.1%,93.2%,98.8%,85.6%,71.7%,76.8%
"O=c1[nH]nc(Sc2ncc([N+](=O)[O-])s2)n1-c1ccc2c(c1)OCCO2 + O=C(O)[C@@H]1[O][Sb](=[O])([O][Sb]2(=[O])[O][C@H]([C@H](O)CO)[C@H](O)[C@H](C(=O)O)[O]2)[O][C@H]([C@H](O)CO)[C@@H]1O [stibogluconate] (first compound 1 µM, partner dose 10 µM)",101%,106%,110%,94%,74.2%,110%,93.8%,107%,89.1%,105%
"O=C(Nc1cccc(Cl)c1)Nc1ncc(CCNc2ncnc3ccsc23)s1 + O=S(=O)(c1ccccc1)N(CC(F)(F)F)c1ccc(C(O)(C(F)(F)F)C(F)(F)F)cc1 [T0901317] (first compound 0.004 µM, partner dose 7 µM)",53.9%,55.1%,51.3%,73%,85.6%,77.9%,62.7%,69.6%,52.2%,58.6%
"Cn1cncc1[C@@](N)(c1ccc(Cl)cc1)c1ccc2c(c1)c(-c1cccc(Cl)c1)cc(=O)n2C [tipifarnib] + COC(=O)c1sccc1S(=O)(=O)Nc1ccc(Nc2ccccc2)cc1OC [GSK0660] (first compound 0.05 µM, partner dose 5 µM)",80.9%,83.7%,81.3%,112%,107%,102%,85.1%,81.9%,80.5%,72.5%
"O=C(Nc1cccc(Cl)c1)Nc1ncc(CCNc2ncnc3ccsc23)s1 + Cc1cc([N+](=O)[O-])ccc1NS(=O)(=O)c1cc(Cl)ccc1Cl [FH535] (first compound 0.004 µM, partner dose 5 µM)",42.8%,46.6%,47%,77.7%,79.7%,45.7%,54.7%,62.1%,71.5%,60.2%
"CC1(C)NC(=O)N(c2ccc([N+](=O)[O-])c(C(F)(F)F)c2)C1=O [nilutamide] + COc1ccc(COc2ccc(Cc3cnc(N)nc3N)cc2OC)cc1 [GW2580] (first compound 5 µM, partner dose 5 µM)",77.9%,88.1%,93%,98.2%,105%,104%,92.7%,91.2%,118%,82.6%
"O=C(Nc1cccc(Cl)c1)Nc1ncc(CCNc2ncnc3ccsc23)s1 + COC(=O)c1sccc1S(=O)(=O)Nc1ccc(Nc2ccccc2)cc1OC [GSK0660] (first compound 0.004 µM, partner dose 5 µM)",43.5%,60.5%,43.3%,77.6%,94.7%,63.5%,64.4%,56.6%,48.8%,58.3%
"CC1(C)NC(=O)N(c2ccc([N+](=O)[O-])c(C(F)(F)F)c2)C1=O [nilutamide] + CN(C)S(=O)(=O)c1ccc2c(c1)/C(=C/c1cc3c([nH]1)CCCC3)C(=O)N2 [SU6656] (first compound 5 µM, partner dose 2 µM)",74%,89.6%,79.3%,69.9%,100%,84.4%,97%,86.9%,46.7%,89.1%
"O=c1[nH]nc(Sc2ncc([N+](=O)[O-])s2)n1-c1ccc2c(c1)OCCO2 + O=C(Nc1ccccc1)c1cc([N+](=O)[O-])ccc1Cl [GW9662] (first compound 1 µM, partner dose 10 µM)",62.1%,97.3%,82.2%,70.9%,69.4%,72.4%,74.4%,49.4%,53.8%,73.5%
"CC1(C)NC(=O)N(c2ccc([N+](=O)[O-])c(C(F)(F)F)c2)C1=O [nilutamide] + O=C(O)c1ccc(-c2c[nH]c3ncc(-c4ccccc4)cc23)cc1C1CCCC1 [GSK650394] (first compound 5 µM, partner dose 0.8 µM)",59.3%,82.2%,80.6%,95.1%,68.5%,66%,94.9%,84.1%,67.2%,74.3%
"C[C@@H]1CCN(C(=O)CC#N)C[C@@H]1N(C)c1ncnc2[nH]ccc12 + COc1cc2c(Oc3ccc4[nH]c(C)cc4c3F)ncnc2cc1OCCCN1CCCC1 [cediranib] (first compound 5 µM, partner dose 2 µM)",101%,96.9%,107%,97.5%,89.9%,98.3%,113%,78.8%,76.9%,81.6%
"COc1cc(Nc2ncc(F)c(Nc3ccc4c(n3)NC(=O)C(C)(C)O4)n2)cc(OC)c1OC [Tamatinib] + O=S(=O)(c1ccccc1)N(CC(F)(F)F)c1ccc(C(O)(C(F)(F)F)C(F)(F)F)cc1 [T0901317] (first compound 2 µM, partner dose 7 µM)",46.7%,63.7%,60.2%,95%,25.6%,72.9%,52.1%,69.7%,39.3%,60.5%
"O=c1[nH]nc(Sc2ncc([N+](=O)[O-])s2)n1-c1ccc2c(c1)OCCO2 + NC1(c2ccc(-c3nc4ccn5c(=O)[nH]nc5c4cc3-c3ccccc3)cc2)CCC1 [MK2206] (first compound 1 µM, partner dose 2 µM)",91.1%,85.5%,88.4%,73.9%,39.1%,70.6%,102%,88%,100%,74.7%
"COc1cc(Nc2ncc(F)c(Nc3ccc4c(n3)NC(=O)C(C)(C)O4)n2)cc(OC)c1OC [Tamatinib] + Cc1cc([N+](=O)[O-])ccc1NS(=O)(=O)c1cc(Cl)ccc1Cl [FH535] (first compound 2 µM, partner dose 5 µM)",34.2%,35.6%,42.3%,55.2%,52.8%,39.3%,27.5%,63.9%,38.6%,54.4%
"O=c1[nH]nc(Sc2ncc([N+](=O)[O-])s2)n1-c1ccc2c(c1)OCCO2 + COc1ccc(C2=N[C@@H](c3ccc(Cl)cc3)[C@@H](c3ccc(Cl)cc3)N2C(=O)N2CCNC(=O)C2)c(OC(C)C)c1 [Nutlin-3] (first compound 1 µM, partner dose 0.5 µM)",82.3%,99.5%,85.2%,70.7%,71.7%,111%,107%,106%,136%,181%
"O=c1[nH]nc(Sc2ncc([N+](=O)[O-])s2)n1-c1ccc2c(c1)OCCO2 + CCN(CC)CCNC(=O)c1c(C)[nH]c(/C=C2\C(=O)Nc3ccc(F)cc32)c1C [sunitinib] (first compound 1 µM, partner dose 2 µM)",82.5%,78.6%,85.4%,62.7%,129%,91%,90.7%,66%,60.2%,77.4%
"O=c1[nH]nc(Sc2ncc([N+](=O)[O-])s2)n1-c1ccc2c(c1)OCCO2 + CN(C)S(=O)(=O)c1ccc2c(c1)/C(=C/c1cc3c([nH]1)CCCC3)C(=O)N2 [SU6656] (first compound 1 µM, partner dose 2 µM)",58.7%,71.8%,69%,71.7%,107%,82.4%,93.3%,69.1%,53.6%,67.4%
"C[C@@H]1CCN(C(=O)CC#N)C[C@@H]1N(C)c1ncnc2[nH]ccc12 + CN(C)S(=O)(=O)c1ccc2c(c1)/C(=C/c1cc3c([nH]1)CCCC3)C(=O)N2 [SU6656] (first compound 5 µM, partner dose 2 µM)",62.6%,69.7%,78.5%,89.1%,88.9%,81.2%,84.5%,77%,48.4%,66.1%
"O=C(Nc1cccc(Cl)c1)Nc1ncc(CCNc2ncnc3ccsc23)s1 + N#Cc1c(O)c2c(-c3ccc(-c4ccccc4O)cc3)csc2[nH]c1=O [A769662] (first compound 0.004 µM, partner dose 10 µM)",67%,85%,64.4%,90.6%,81.6%,74.1%,72.1%,44.1%,60.6%,91.6%
